Source: paper PMC9530240, “Macromolecular crowding and supersaturation protect hemodialysis patients from the onset of dialysis-related amyloidosis” (Nature Communications, 2022)

Key:
serum albumin [1] = molecular target: T1, serum albumin; assay: NMR titration; 1H-15N HSQC of 15N-labelled β2m at 1.0 mg/mL with varying concentrations of serum albumin; 20 mM sodium phosphate pH 7, 100 mM NaCl, 2% D2O; 37 °C; KD estimated from the decrease in signal intensity; conditions: both partners purified
T1 construct: serum albumin, MW ~66.2 kDa; neither species nor supplier is stated for the isolated protein used in the QCM, NMR and HANABI experiments

serum albumin [2] = molecular target: T1, serum albumin; assay: quartz crystal microbalance (QCM); β2m monomer immobilised on the gold-coated quartz resonator (SAM, NHS/EDC) in 20 mM NaPi pH 7.4; serum albumin at various concentrations flowed at ~0.5 mL/min; 37 °C; KD = kd/ka from a linear fit of α against albumin concentration, 1:1 stoichiometry assumed; n = 3; conditions: both partners purified

B1: recombinant β2-microglobulin monomer with an additional methionine residue at the N terminus (natural protein)
chain: not shown
modifications: uniformly 15N-labelled in the NMR experiment only
notes: additional methionine residue at the N terminus, told in words; β2-microglobulin, the globular protein of 99 amino acid residues (the mature protein without its signal peptide); MW ~11.8 kDa; No tag is named; In the QCM experiment it was coupled to the sensor by NHS/EDC; also called β2m monomer; N (native state)
Question: With B1 as the binder, how does the Kd (serum albumin [1]) read?
Answer: ~500 µM

Question: What about the Kd (serum albumin [2]) of the same binder?
Answer: 492 µM
